Reference: article PMC4336329 (PLoS ONE, 2015)
In all, about 310,000 compounds went through this assay and about 2,200 (0.71%) showed an effect of 50% or more. The effect is printed as a negative number. The list shows a part of the results.

These compounds were tested against human ether-à-go-go-related gene (hERG) potassium channel (human, UniProt Q12809) (assay: primary screen, population patch clamp on CHO cells stably expressing hERG).
Chain of human ether-à-go-go-related gene (hERG) potassium channel (Q12809 whole entry, looked up): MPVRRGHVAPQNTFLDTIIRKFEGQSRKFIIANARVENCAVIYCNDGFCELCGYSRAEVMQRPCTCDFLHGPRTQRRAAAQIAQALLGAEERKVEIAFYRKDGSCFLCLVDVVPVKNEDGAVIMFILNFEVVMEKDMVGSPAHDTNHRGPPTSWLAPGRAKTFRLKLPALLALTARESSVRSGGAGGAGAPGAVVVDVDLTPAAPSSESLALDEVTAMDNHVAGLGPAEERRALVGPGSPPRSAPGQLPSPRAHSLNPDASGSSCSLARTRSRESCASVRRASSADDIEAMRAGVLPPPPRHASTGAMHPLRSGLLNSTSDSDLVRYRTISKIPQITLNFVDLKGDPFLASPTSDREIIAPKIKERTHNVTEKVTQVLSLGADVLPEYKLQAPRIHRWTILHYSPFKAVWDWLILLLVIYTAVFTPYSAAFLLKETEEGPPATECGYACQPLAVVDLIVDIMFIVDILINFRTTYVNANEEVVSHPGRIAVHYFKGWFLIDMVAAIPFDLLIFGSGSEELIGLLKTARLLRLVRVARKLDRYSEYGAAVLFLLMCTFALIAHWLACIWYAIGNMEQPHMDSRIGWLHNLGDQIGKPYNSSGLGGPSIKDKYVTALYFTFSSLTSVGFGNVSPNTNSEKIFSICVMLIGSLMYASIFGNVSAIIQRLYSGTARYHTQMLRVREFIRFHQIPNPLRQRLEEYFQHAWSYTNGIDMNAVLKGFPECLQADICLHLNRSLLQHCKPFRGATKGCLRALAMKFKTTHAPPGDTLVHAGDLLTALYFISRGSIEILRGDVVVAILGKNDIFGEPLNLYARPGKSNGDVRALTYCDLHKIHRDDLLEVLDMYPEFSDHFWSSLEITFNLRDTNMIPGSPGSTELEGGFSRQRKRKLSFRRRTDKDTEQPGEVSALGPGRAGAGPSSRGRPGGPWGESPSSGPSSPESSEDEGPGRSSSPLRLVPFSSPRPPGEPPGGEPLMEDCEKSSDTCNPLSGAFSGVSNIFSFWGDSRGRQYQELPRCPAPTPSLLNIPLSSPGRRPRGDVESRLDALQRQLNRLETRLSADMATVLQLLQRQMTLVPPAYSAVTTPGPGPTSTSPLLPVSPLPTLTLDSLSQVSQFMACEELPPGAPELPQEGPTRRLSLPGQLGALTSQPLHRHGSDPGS

Structure (SMILES)	hERG current change (%, negative = inhibition) at 1uM
CCCn1nc(NC(=O)c2ccco2)c2cc3cc(C)ccc3nc21	5.26%
Cc1ccc(OCC(=O)N(C)CC(=O)Nc2ccc(Cl)c(C(F)(F)F)c2)c([N+](=O)[O-])n1	-3.3%
COc1ccc(O)c(C(=O)c2cnn(C(=O)c3cc(C)oc3C)c2)c1	11.1%
Cc1ccc(S(=O)(=O)NNc2ccccc2)c(C)c1	8.32%
COc1ccccc1N1CCN(CC(O)COc2ccc3c(c2)OCO3)CC1.Cl (stereo not shown)	6.33%
CCOC(=O)C1CCN(c2c(N3CCCC(C(=O)OCC)C3)c(=O)c2=O)CC1 (stereo not shown)	8.36%
Cc1cc(C)c(C)c(OCCN2CC(C)OC(C)C2)c1.O=C(O)C(=O)O (stereo not shown)	8.8%
COC(=O)c1ccc(NC(=O)c2cccc(Cl)c2)o1	-2.38%
COC(=O)C1=C(c2c(C)noc2C)C[C@@H]2CC[C@H]1N2C(=O)N1CCC(O)CC1	11.6%
COc1cc(OC)c(NC(=O)CNC(=O)Cn2ccc3ccccc3c2=O)cc1Cl	10.4%
O=c1cc[nH]c2cccc(Cc3ccccc3)c12	0.868%
Cc1noc(C)c1S(=O)(=O)N1CCC(Cc2ccccc2)CC1	7.79%
COCCNCC(=O)Nc1ccc(C)c(S(=O)(=O)N2CCCCC2)c1.O=C(O)C(=O)O	8.21%
c1ccc(CCn2c(SCc3ccccc3)nnc2-c2ccncc2)cc1	-12.4%
COc1cc(-c2[nH]ncc2CN2CCCC2c2nonc2C)cc(OC)c1OC (stereo not shown)	4.6%
CC(=O)Nc1ccc(NC(=O)CN2C(=O)COc3ccc(S(=O)(=O)N4CCOCC4)cc32)cc1	17.9%
CC(C)CCn1nnnc1C(c1ccc(F)cc1)N1CCC(C(N)=O)CC1 (stereo not shown)	8.02%
Cc1cc(=O)oc2cc(OCC(=O)Nc3ccc(S(=O)(=O)N(C)C)cc3)ccc12	6.35%
COCCNC(=O)C1c2ccccc2C(=O)N(CCOC)C1c1ccc(F)cc1 (stereo not shown)	8.19%
C1=C(c2ccccc2)Nc2ncnn2C1c1ccccc1 (stereo not shown)	4.08%
CCN1CCCC(OC(=O)C(c2ccccc2)c2ccccc2)C1.Cl (stereo not shown)	-53%
CCOc1ccccc1N1CC(C(=O)Nc2cc(S(C)(=O)=O)ccc2Cl)CC1=O (stereo not shown)	10.8%

Structure (SMILES)	hERG current change (%, negative = inhibition) at 1uM
COc1ccc(Nc2nc(NCCO)nc(N3CCCC3)n2)cc1	-14.5%
Cl.OCCN(CCO)CC(O)Cn1c2ccccc2c2ccccc21 (stereo not shown)	-4.59%
COc1ccc(C)cc1NC(=O)CN1CCN(S(=O)(=O)c2ccc(Cl)cc2)CC1	5.63%
O=C(NCC(=O)N1CCN(C(=O)c2ccco2)CC1)c1ccc(Cl)cc1	-11.4%
COc1ccc2oc(-c3ccco3)cc(=O)c2c1	3.46%
Cc1cc(C(=O)N/N=C/C=C/c2ccccc2)n[nH]1	11.6%
CN(C(=O)COC(=O)C12CC3CC(CC(Cl)(C3)C1)C2)C1(C#N)CCCCC1	3.78%
N#C/C(=C1/CCCCCN1)c1nc2ccccc2s1	6.3%
CC1(C)CC(=O)C(C(c2cccc([N+](=O)[O-])c2)C2C(=O)CC(C)(C)CC2=O)C(=O)C1	10.7%
CCOc1ccc(CCNC(=O)c2cccc(NC3=NC4CS(=O)(=O)CC4S3)c2)cc1OCC (stereo not shown)	11.8%
COc1ccc(N2C(=O)CS/C2=N\C(=S)Nc2ccccc2)cc1	9.99%
COC(=O)CC1C(=O)NCCN1C(=O)c1c(F)cccc1F (stereo not shown)	9.55%
COc1cc(NC(=O)CCCN2C(=O)NC(C)(C)C2=O)cc(OC)c1	10.5%
O=C(CSc1ncccn1)NCC1CCCO1 (stereo not shown)	5.82%
COc1ccccc1N(C)S(=O)(=O)c1ccc(C(=O)OC(C)C(=O)NCc2ccc3c(c2)OCO3)cc1 (stereo not shown)	13.3%
CN1CCN(C(=O)c2cn(-c3ccccc3)nc2-c2cccnc2)CC1	2.28%
O=C1/C(=C/c2ccccc2F)SC(=S)N1CCC(=O)N1CCCCC1CCO (stereo not shown)	11.5%
NC(=O)C1CCN(CC(=O)N2N=CCC2c2ccccc2)CC1 (stereo not shown)	-2.73%
O=C1Nc2c(c(=O)[nH]c(=O)n2Cc2ccccc2)C1(NS(=O)(=O)c1ccccc1)C(F)(F)F (stereo not shown)	14.5%
Cc1ccc2nc(NC(=O)CSc3nncc(=O)n3N)sc2c1	6.18%
Cc1cccc(-n2c(C)cc(/C=N/NC(=O)c3ccc(CN4CCOCC4)cc3)c2C)c1	1.39%
COc1cc(OC)cc(C(=O)Nc2nnc(SCC(=O)NCC3CCCO3)s2)c1 (stereo not shown)	10.4%

Structure (SMILES)	hERG current change (%, negative = inhibition) at 1uM
CN1CCN(C(=O)N2CCNC2=O)CC1.Cl	5.77%
Cc1ccc(-c2nnc(Nc3ccc(C(N)=O)cc3)c3ccccc23)cc1S(=O)(=O)NCC1CCCO1 (stereo not shown)	0.193%
O=C(O)c1ccccc1NC(=S)NC(NC(=O)c1ccccc1[N+](=O)[O-])C(Cl)(Cl)Cl (stereo not shown)	5.13%
O=C(CCn1nc(-c2ccccc2)ccc1=O)N1CCOCC1	-0.0478%
CCCN1CNc2c(c(=O)[nH]c(=S)n2-c2ccccc2Cl)C1	0.574%
N#Cc1c(C#N)c(-c2ccccc2)n(-c2ccccc2)c1N	3.94%
Cn1c(N)c(N2CCCCC2)c(=O)n(CC(=O)Nc2ccc(Cl)c(Cl)c2)c1=O	1.87%
COc1ccc(N2CCN(C(=O)C3CCCO3)CC2)cc1 (stereo not shown)	7.68%
CCCC(NC(=O)c1ccco1)c1nc2ccccc2[nH]1 (stereo not shown)	1.97%
CC1CN(C(=O)CCC(=O)NC(C)c2ccccc2)c2cc(Cl)ccc2O1 (stereo not shown)	6.45%
CCOc1ccc(-n2c(SCC(=O)N3CCc4ccccc43)nnc2-c2c[nH]c3ccccc23)cc1	19.1%
COc1cc2cc(C(=O)N3CCN(c4ccccc4OC)CC3)[nH]c2cc1OC	17.2%
Cc1ccc(NC(=O)c2c(C)nc3sc(C(=O)NC4CCCC4)c(N)c3c2-c2ccco2)c(C)c1	5.2%
COc1ccc(S(=O)(=O)NCCNC(=O)N2CCOCC2)cc1	-27.4%
CCOc1ccccc1C(=O)Nc1cccc2ccccc12	13.7%
COc1cc(C(=O)OCC(=O)NC2CCS(=O)(=O)C2)ccc1OCc1c(C)noc1C (stereo not shown)	6.59%
Cc1cccc(C2(c3cccc(C)c3)CC2C(=O)NCC2CCCO2)c1 (stereo not shown)	9.01%
Cc1cc2cc(CNC(=S)Nc3ccc(OC(F)(F)F)cc3)ccc2[nH]1	21.9%
COc1cc(C(C)=O)ccc1OCC(O)Cn1nc(C)c(C(C)=O)c1C (stereo not shown)	5%
CCOC(=O)c1sc(NC(=O)CSc2nc(C)cc(-c3ccccc3)n2)c(C#N)c1C	12.6%
COc1cccc(Cn2c(-c3nonc3N)nc3ccccc32)c1	0.388%
O=C1CN(C(=O)COc2ccc(Br)cc2Br)c2ccccc2N1	5.89%

Structure (SMILES)	hERG current change (%, negative = inhibition) at 1uM
O=C(NC1=NC2CCCCC2N1)c1ccccc1 (stereo not shown)	12.5%
Cc1cccc(NC(=O)C2CCCN(c3cnccn3)C2)c1 (stereo not shown)	10.7%
CN(C)S(=O)(=O)c1cccc(-c2nnc3n2CCCCC3)c1	6.29%
O=P(O)(O)COc1ccccc1P(=O)(c1ccccc1)c1ccccc1	7.28%
COc1ccc(N2C(=O)CSC2c2ccncc2)cc1 (stereo not shown)	10.2%
Cc1nn(CC#N)c(=O)n1-c1ccc(C(C)C)cc1	11.3%
CC1(C)NC(=O)N(CC(O)CN(Cc2ccccc2)Cc2ccccc2)C1=O (stereo not shown)	9.31%
Cc1ccc(CNCc2ccc3c(c2)OCO3)cc1	10.3%
O=C(O)C1=C[C@@H](c2csc3ccccc23)C[C@@H](OCCCCO)O1	9.35%
NC(=O)C1=C[C@@H](c2csc3ccccc23)C[C@@H](OCc2ccc(CO)cc2)O1	4.37%
Cc1ccc(C)c(NC(=S)N2CCN(Cc3ccccc3)CC2)c1	20.8%
O=C(NC1CCCCCCC1)C1c2ccccc2C(=O)N1Cc1ccco1 (stereo not shown)	3.37%
O=C(/C=C/c1ccccc1[N+](=O)[O-])N1CCc2ccccc2C1	4.33%
Cc1ccn2c(=O)nc(SCC(=O)N3CCCCCC3)nc2c1	19.6%
C=CCSc1nc2sc3c(c2c(=O)[nH]1)CCC3	2.57%
Cc1ccccc1C(=O)Nc1ccc2c(c1)CCCN2C(=O)c1cccs1	4.77%
COc1ccc(Cn2ccnc2CO)cc1[N+](=O)[O-].Cl	7.25%
CC(CNC(=O)CN1C(=O)NC2(CCOc3ccccc32)C1=O)c1ccccc1 (stereo not shown)	3.15%
COc1ccccc1NCc1cc(=O)oc2c(C)c(O)ccc12	14.9%
Cc1cccc(Nc2nc(-c3ccccc3)c(C(=O)Nc3cccnc3)s2)c1	9.26%
Cc1cc(C)c2c3c(sc2n1)C(=O)N(C)CC(=O)N3	5.35%
CCc1c(C2(O)CCCCC2)[nH]c2cnccc12	7.22%
